Residue numbers refer to the chain shown, from its start. In names and notes the source's numbering stands. ± gives the standard deviation of the averaged measurements. Laboratory Escherichia coli strains with one amino-acid change in an essential protein, pooled on minimal glucose agar with carbenicillin or gentamicin at twice the control MIC (plus kanamycin and chloramphenicol for the plasmids), 48 h. Fold change of barcode share against drug-free plates; higher = less susceptible. Active = above 20 in both replicates (the paper's putatively resistant). '<' = one read or none on drug, '>' = one read or none on a drug-free plate. Shares are relative, so most strains fall below 1 when a few take over. Listed are strains with at least 15 reads on both drug-free plates, and hits; most hits rest on fewer reference reads. Replicate rank correlation about 0.5. Edits are read from barcodes.
B1: pssA V346A (protein)
chain: MLSKFKRNKHQQHLAQLPKISQSVDDVDFFYAPADFRETLLEKIASAKQRICIVALYLEQDDGGKGILNALYEAKRQRPELDVRVLVDWHRAQRGRIGAAASNTNADWYCRMAQENPGVDVPVYGVPINTREALGVLHFKGFIIDDSVLYSGASLNDVYLHQHDKYRYDRYHLIRNRKMSDIMFEWVTQNIMNGRGVNRLDDVNRPKSPEIKNDIRLFRQELRDAAYHFQGDADNDQLSVTPLVGLGKSSLLNKTIFHLMPCAEQKLTICTPYFNLPAILVRNIIQLLREGKKVEIIVGDKTANDFYIPEDEPFKIIGALPYLYEINLRRFLSRLQYYVNTDQLVARLWKDDDNTYHLKGMWVDDKWMLITGNNLNPRAWRLDLENAILIHDPQLELAPQREKELELIREHTTIVKHYRDLQSIADYPVKVRKLIRRLRRIRIDRLISRIL
B2: pssA V346P (protein)
chain: B1 chain with A346P
B3: pssA I370W (protein)
chain: B1 chain with A346V, I370W
B4: psd L96W (protein)
chain: MLNSFKLSLQYILPKLWLTRLAGWGASKRAGWLTKLVIDLFVKYYKVDMKEAQKPDTASYRTFNEFFVRPLRDEVRPIDTDPNVLVMPADGVISQWGKIEEDKILQAKGHNYSLEALLAGNYLMADLFRNGTFVTTYLSPRDYHRVHMPCNGILREMIYVPGDLFSVNHLTAQNVPNLFARNERVICLFDTEFGPMAQILVGATIVGSIETVWAGTITPPREGIIKRWTWPAGENDGSVALLKGQEMGRFKLGSTVINLFAPGKVNLVEQLESLSVTKIGQPLAVSTETFVTPDAEPAPLPAEEIEAEHDASPLVDDKKDQV
B5: psd I257Q (protein)
chain: B4 chain with W96L, I257Q
B6: psd V256Q (protein)
chain: B4 chain with W96L, V256Q
B7: psd V134Q (protein)
chain: B4 chain with W96L, V134Q
B8: psd L96Q (protein)
chain: B4 chain with W96Q
B9: psd L96P (protein)
chain: B4 chain with W96P
B10: psd I257W (protein)
chain: B4 chain with W96L, I257W
B11: psd V134W (protein)
chain: B4 chain with W96L, V134W
B12: psd V256A (protein)
chain: B4 chain with W96L, V256A
B13: psd I257A (protein)
chain: B4 chain with W96L, I257A

Biological target: Escherichia coli (laboratory strain)
Assay: barcode share on antibiotic plates over drug-free plates; higher = less susceptible
Protocol: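 A pool of E. coli strains, each edited to carry one amino-acid change in an essential protein, was grown for 48 h on minimal glucose agar with or without antibiotic; strain barcodes were sequenced; mean of two replicates.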

[1] = antibiotic: carbenicillin, 2× MIC (3.1 µg/mL)
[2] = antibiotic: gentamicin, 2× MIC (MIC 0.45 µg/mL)

Protein	fold change of barcode share [1]	fold change of barcode share [2]
B1	0.123 ± 0.033	–
B2	0.322 ± 0.36	< 0.0101
B3	0.217 ± 0.089	< 0.0107
B4	0.836 ± 0.085	0.0156 ± 0.013
B5	0.499 ± 0.095	0.00784 ± 0.0035
B6	0.484 ± 0.017	0.00883 ± 0.009
B7	0.587 ± 0.22	< 0.00841
B8	0.466 ± 0.31	< 0.0127
B9	0.271 ± 0.1	< 0.00822
B10	> 73 [active]	–
B11	0.265 ± 0.1	< 0.0117
B12	0.33 ± 0.05	0.00351 ± 0.0013
B13	0.453 ± 0.13	0.0261 ± 0.0026

— the supplement of paper PMC11876631
